Measurements published in the RNAGym collection of RNA variant scans (doi:10.7554/elife.90254).
Read counts are not given, so values of variants with three or more changes are uncertain.

B1: OR4K15 (parent)
chain: GUUAACGGUCAUAGGCCAUGGAAACUAGGAGCACCAUUUCGCUGCCAGUGAAGAAAUGAACAAAGAAAAUCUGGGCCAGGCAGGCAUCAAAAGAAAUAGUCUUGCGCUCAACCAGAAAGUCUGUAAUCAUUUUAAGGGUA

Variants of: B1
Test: self-cleavage, relative activity (ratio to wild type); higher = more cleavage; in vitro, sequencing; the parent is a self-cleaving ribozyme
Variant A11G G15A A36U A59G has a self-cleavage of 0.71. In the case of A11G U38C U132C, the self-cleavage is reported as 1.32. With U12C A86G A111G the self-cleavage was 0.06. Variant A11U A92U A116U has a self-cleavage of 0. Work on U12C U38A A60G A110U A117G G138U yielded a self-cleavage of 1.23. In the case of U12C A56G G99A, the self-cleavage is reported as 0.5. In the case of U12A A22U A36U, the self-cleavage is reported as 1.74. With A11G A125G A126G the self-cleavage was 0.37. Variant U12C A36G C77A A110G has a self-cleavage of 0.12. In the case of U12C C61U A140G, the self-cleavage is reported as 0.84. For A11G A110G U132C A134C A135G, the self-cleavage was 0.07. Variant A11G A52G A64G U100C has a self-cleavage of 0.75. Work on U12C A94G A111G yielded a self-cleavage of 0.05. A11G A78U A111C A125U gave a self-cleavage of 0.04. In the case of U12C A111G U130C, the self-cleavage is reported as 0.05. Variant A11U A23G A66G U72C U102C has a self-cleavage of 0.25. In the case of A11G U38C A52G U57C A68G U131A, the self-cleavage is reported as 0.98. With U12C A36U A67G U108C the self-cleavage was 0.09. A11G A47G U70C G73U showed a self-cleavage of 0.26. In the case of U12C A89G A126G, the self-cleavage is reported as 1.25. Work on A11G A52G A94G C105U yielded a self-cleavage of 0.04. U12C U100C U131C showed a self-cleavage of 2.57. U12C G15A U38C U39G showed a self-cleavage of 1.26. In the case of U12A A62G U97C, the self-cleavage is reported as 1.47. Work on A11G A90G A92U U130C yielded a self-cleavage of 0.46. For A11G U12C U70C U87A, the self-cleavage was 0.2. In the case of A11G A55G A67G A69G, the self-cleavage is reported as 1.25. For A11G A67G A111G, the self-cleavage was 0.03. Work on A11G A62U U87C C121U yielded a self-cleavage of 1.32. Work on U12A U43C C107U U124A yielded a self-cleavage of 0.06. With A11U A67G U102C U103C the self-cleavage was 0.31. Variant A11U G28A A51G A94G A118G has a self-cleavage of 0.84. In the case of U12A C17A A69G U97A, the self-cleavage is reported as 2.35. Variant A11G A30G U43C has a self-cleavage of 0.69. U12C A59G A66G A69G showed a self-cleavage of 0.88. Variant A11G A56C U127A has a self-cleavage of 0.79. Work on A11G G79A A89U U108C yielded a self-cleavage of 0.04. With A11G U19C A66U A92G A134G the self-cleavage was 0.46. With A11G U39C A59G A91G the self-cleavage was 0.62. Work on A11U A95G U97C yielded a self-cleavage of 0.34. In the case of A11U A18U A30G A51G A78U, the self-cleavage is reported as 0.67. With A11U G41U G84C the self-cleavage was 0.4. With A11U A54G A86G A89C the self-cleavage was 0.48. U12C A60G A62G U72C A110U U127C A140U showed a self-cleavage of 0.08. In the case of A11G A54G A134G, the self-cleavage is reported as 0.57. A11U U12A A68U U100C U139C showed a self-cleavage of 1.79. Variant U12C A69G A98G U131C has a self-cleavage of 0.54. U12C A33C A140G gave a self-cleavage of 1.73. With U12C A18G A56G A98G the self-cleavage was 0.73. In the case of U12G A33G A78G, the self-cleavage is reported as 0.27. For A11G C46A U100C U131C A135G, the self-cleavage was 0.96. Work on U12C U103C A129G yielded a self-cleavage of 0.3. With A11G U19C A66G A126U the self-cleavage was 0.38. Variant A11G U19C A78U has a self-cleavage of 0.41. For U12C A60G A66G A86U A117U, the self-cleavage was 0.9. A11G A59G A92G U131C gave a self-cleavage of 0.56. With U12C A82G A92G the self-cleavage was 0.36. In the case of A11U A51G A111C, the self-cleavage is reported as 0.04. U12A A67G U70C G74U gave a self-cleavage of 0.3. In the case of U12C G50U U57C, the self-cleavage is reported as 0.91. In the case of A11U C17U U57C A94G, the self-cleavage is reported as 0.7. Variant A11U C107U A116G U120C has a self-cleavage of 0.01. In the case of U12C A68G A95G, the self-cleavage is reported as 1.99. In the case of A11G A27U A54G A56U, the self-cleavage is reported as 0.13. With U12A A24C A118G U132C the self-cleavage was 0.04. In the case of U12C U19A A22G U39C, the self-cleavage is reported as 1.57. A11G U43G U70A U72A gave a self-cleavage of 0.25. Variant U12C A18G U43A A62G U131C has a self-cleavage of 1.03. In the case of U12A A64G A129G, the self-cleavage is reported as 1.23. Variant U12A U19C A66U has a self-cleavage of 1.65. Variant U12C U26A C40U A55G U57C has a self-cleavage of 0.49. A11G U97C A110G U131C gave a self-cleavage of 0.03. Variant U12C U39A U131C U132C has a self-cleavage of 1.89. For A11G U19G C42U U127C, the self-cleavage was 0.38. A11G A47G A59G A78G U87A C109A gave a self-cleavage of 0.07. A11G A66G A90G A95G A110G showed a self-cleavage of 0.04. A11G U38C A96G gave a self-cleavage of 1.68. U12C A30G A78C U108C U124C showed a self-cleavage of 0.01. For A11G A92G U130C, the self-cleavage was 0.53. Work on A11G A56G A63G yielded a self-cleavage of 0.48. For A11G A47U C101A, the self-cleavage was 0.05. With A11U U72C A96G the self-cleavage was 0.11. Work on U12A A47U A63G yielded a self-cleavage of 1.07. U12C U39C A68G A90G A94G G123A gave a self-cleavage of 1.01. Variant U12C A59G A125G has a self-cleavage of 0.38. For U12A G44A U102C, the self-cleavage was 1.15. U12A A82U U103C A118G showed a self-cleavage of 0.03. U12A A33C A59G A82U A111G gave a self-cleavage of 0.06. A11G A96G A114G U132C showed a self-cleavage of 0.32. A11U C61U U103C showed a self-cleavage of 1.34. Work on A11U G53U U87C yielded a self-cleavage of 0.27. Work on U12C A60G A92G A110G U120C U127C yielded a self-cleavage of 0. A11G U39C A56G A66G U108C gave a self-cleavage of 0.04. In the case of A11G U19A G79U U87C, the self-cleavage is reported as 0.1. Work on A11U A30U A47U U57A U108C yielded a self-cleavage of 0.03. Variant A11G U19C U108C has a self-cleavage of 0. Work on A11G A51G A91G yielded a self-cleavage of 0.3. Work on A11G A52G G74U A86U A118G yielded a self-cleavage of 0.09. A11G A96G U108C gave a self-cleavage of 0.05. In the case of U12C G48A A59G A78G U102C, the self-cleavage is reported as 0.37. Work on A11U U19C A63G A89G yielded a self-cleavage of 1.8. Work on A11G A51G A78G yielded a self-cleavage of 0.49. A11G A69G U100C A125G U130C showed a self-cleavage of 0.95. In the case of U12A A94U A116G A134G, the self-cleavage is reported as 0.42. For A11U A33G A59G A60G A116G, the self-cleavage was 0.1. Work on A11G U37C A51G A90U yielded a self-cleavage of 1.53. In the case of A11G U70C U87A U133C, the self-cleavage is reported as 0.96. Work on A11G U102C A114U U130C yielded a self-cleavage of 0.03. Work on A11G U49C A55G U97A U120C yielded a self-cleavage of 0.85. Work on A11G A60U A66G A78G U100C yielded a self-cleavage of 0.22. For U12G A27G A52G A98G, the self-cleavage was 0.76. Work on U12C G44A A94G U139C yielded a self-cleavage of 1.52. For U12C A30G A129G, the self-cleavage was 0.6. With A11U U38C G75C U102C the self-cleavage was 0.11. For A11U A56G A91U, the self-cleavage was 0.89. U12C A22U A23G C85U showed a self-cleavage of 0.47. Variant A11U A52G A82G has a self-cleavage of 0.38. Variant A11G U19G G31A U130C has a self-cleavage of 1.02. U12C A33U G41A A69G C85U gave a self-cleavage of 1.49. Variant A11G U70C U87C A114U has a self-cleavage of 0.03. Work on U12C G48U A54G U57C yielded a self-cleavage of 1.22. Work on A11G A55G A78G yielded a self-cleavage of 0.23. In the case of U12A A69G A89G C105U A134G, the self-cleavage is reported as 0.07. Work on A11G C77U A86C U100C yielded a self-cleavage of 0.76. Work on U12A U49C A78G A82G A114U yielded a self-cleavage of 0.05. Work on A11G A91G U100C yielded a self-cleavage of 0.9. U12C A98C U100C A117G gave a self-cleavage of 2.8. A11G A55G U57A A69G U102G C105U showed a self-cleavage of 0.12. Work on A11G U43A A125U A140G yielded a self-cleavage of 2.28. With U12C A33C A56G the self-cleavage was 1.06. Work on U12C A52C A64U yielded a self-cleavage of 0.77. Variant U12A U43C U102C U108C A117G has a self-cleavage of 0.02. A11G U19C U26C A55G U103C A116U gave a self-cleavage of 0.2. In the case of A11U U19C A24G A68G A89G A92G G93A, the self-cleavage is reported as 0.53. Variant A11U A33G A51G U70A has a self-cleavage of 0.18. A11G U38G A95G U122C showed a self-cleavage of 0.72. In the case of U12A A47U A91G A117G, the self-cleavage is reported as 0.42. With A11U A22U A33U A52G U70C G106U the self-cleavage was 0.05. U12C G80C U87C A90G U103G gave a self-cleavage of 0.02. For A11U A22C A27G A94G A118G, the self-cleavage was 1.34. With U12C A18G U49G the self-cleavage was 1.9. A11G U26A A56G A92U gave a self-cleavage of 1.01. With U12C A56G A68G the self-cleavage was 0.34. In the case of U12G A22U A24G U122G, the self-cleavage is reported as 2.05. In the case of U12C A22G A23G U102C U130C, the self-cleavage is reported as 1.07. A11G A64G A66G G84A U120G showed a self-cleavage of 1.79. Variant A11G A59U A125G has a self-cleavage of 0.58. Work on U12C A54G A55C yielded a self-cleavage of 1.36. Variant A11G U122C A129G has a self-cleavage of 0.4. With A11G A60G A94G the self-cleavage was 0.94. Work on U12A A56C A89G yielded a self-cleavage of 0.64. U12C C17U U87C showed a self-cleavage of 1.33. For A11U U38A A86U A90G U122A, the self-cleavage was 0.97. U12C A24G A66G A67C gave a self-cleavage of 1.32. Variant U12A A30U A36U has a self-cleavage of 1.42. With A11G A55G A95U U130C the self-cleavage was 0.71. Variant A11U U26C U120C has a self-cleavage of 1.2. A11G U12A U39C showed a self-cleavage of 1. Variant A11U A51G A64U has a self-cleavage of 1.49. With A11U U12C A23U G106A the self-cleavage was 0.02. A11G A59G A63G A90G gave a self-cleavage of 1.37. A11G A51G U120C showed a self-cleavage of 0.65. Variant U12C A64C U72A A117G U131C has a self-cleavage of 0.13. In the case of A11U A62G U72C, the self-cleavage is reported as 0.29. With A11U A54U A129G the self-cleavage was 0.67. Variant A11U A68G A82G A94G has a self-cleavage of 0.6. For U12C A59U U70C U130C, the self-cleavage was 0.43.
